Data taken from PMC3681933.
No constants are given. Whether binding was seen depends on the method and setting. In cells and extracts the contact can be indirect. Some results given as binding are weak or reduced against the parent protein; the word gives no strength. Sequences can lack the tags named with a protein.

Key:
GST-Boi1 (S. cerevisiae) = target: T1, GST-Boi1 (S. cerevisiae) (UniProt P38041); test: condition: only in cells with endogenous BOI1 and BOI2 (strain YEF1395); pull-down; GST or GST fusions induced with 2% galactose for 4 h in yeast co-expressing 3HA-Msb1 (strains YEF473A wild type or YEF1395 msb1Δ, endogenous BOI1 and BOI2 present); glutathione-Sepharose beads from Triton X-100-solubilized cell lysates; anti-HA blot
T1 sequence: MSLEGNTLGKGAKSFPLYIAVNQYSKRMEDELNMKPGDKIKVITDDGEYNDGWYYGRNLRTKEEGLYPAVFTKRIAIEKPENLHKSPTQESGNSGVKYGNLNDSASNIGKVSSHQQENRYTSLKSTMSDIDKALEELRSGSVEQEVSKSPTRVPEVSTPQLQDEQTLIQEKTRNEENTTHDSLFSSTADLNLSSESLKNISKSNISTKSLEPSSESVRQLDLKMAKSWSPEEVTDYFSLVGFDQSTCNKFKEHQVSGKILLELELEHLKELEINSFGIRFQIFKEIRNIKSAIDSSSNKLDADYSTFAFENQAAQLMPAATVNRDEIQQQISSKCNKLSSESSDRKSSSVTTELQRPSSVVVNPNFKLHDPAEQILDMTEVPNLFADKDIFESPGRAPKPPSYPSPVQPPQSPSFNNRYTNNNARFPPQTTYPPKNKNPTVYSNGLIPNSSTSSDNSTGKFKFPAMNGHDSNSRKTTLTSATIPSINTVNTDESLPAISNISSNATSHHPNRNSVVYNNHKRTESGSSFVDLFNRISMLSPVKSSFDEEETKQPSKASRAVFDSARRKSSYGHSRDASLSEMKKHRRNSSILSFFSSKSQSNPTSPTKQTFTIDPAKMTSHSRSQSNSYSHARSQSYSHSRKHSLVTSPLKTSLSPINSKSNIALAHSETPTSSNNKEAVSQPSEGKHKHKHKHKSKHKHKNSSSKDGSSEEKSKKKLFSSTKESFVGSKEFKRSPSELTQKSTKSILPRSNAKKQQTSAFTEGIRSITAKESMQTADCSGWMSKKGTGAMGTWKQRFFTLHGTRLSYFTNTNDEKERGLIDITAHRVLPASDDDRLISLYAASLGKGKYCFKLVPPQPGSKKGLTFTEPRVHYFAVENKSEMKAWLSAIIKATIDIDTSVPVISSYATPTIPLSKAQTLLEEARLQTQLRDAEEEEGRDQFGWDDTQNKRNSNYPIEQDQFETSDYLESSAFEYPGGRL

[1] = target: T2, GST-Boi2-C (aa 459-1040) (S. cerevisiae) (UniProt P39969); test: pull-down; GST or GST fusions induced with 2% galactose for 4 h in yeast co-expressing 3HA-Msb1 (strains YEF473A wild type or YEF1395 msb1Δ, endogenous BOI1 and BOI2 present); glutathione-Sepharose beads from Triton X-100-solubilized cell lysates; anti-HA blot
T2 sequence: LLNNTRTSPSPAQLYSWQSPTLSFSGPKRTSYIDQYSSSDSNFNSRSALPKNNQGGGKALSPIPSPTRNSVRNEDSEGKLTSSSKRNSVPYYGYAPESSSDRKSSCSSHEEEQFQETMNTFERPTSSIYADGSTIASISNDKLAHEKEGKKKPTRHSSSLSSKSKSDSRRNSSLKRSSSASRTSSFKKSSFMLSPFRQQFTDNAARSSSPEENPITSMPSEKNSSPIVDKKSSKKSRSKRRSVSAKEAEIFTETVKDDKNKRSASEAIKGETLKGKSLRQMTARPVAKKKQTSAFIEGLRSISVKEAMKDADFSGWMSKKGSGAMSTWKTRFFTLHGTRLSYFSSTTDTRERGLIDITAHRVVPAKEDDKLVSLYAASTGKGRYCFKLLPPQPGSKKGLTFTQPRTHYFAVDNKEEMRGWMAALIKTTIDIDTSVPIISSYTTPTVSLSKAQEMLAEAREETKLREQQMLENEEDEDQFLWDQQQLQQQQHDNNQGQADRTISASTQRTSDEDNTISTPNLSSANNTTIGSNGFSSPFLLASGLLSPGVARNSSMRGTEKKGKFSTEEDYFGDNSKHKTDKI

B1: Msb1 tagged with three copies of HA at its N-terminus (protein, UniProt P21339 1-1137)
chain: MNDMAKPLPTPPTAEIRKSRSNSPKKAQKTNLSPNKNQNNEKNVPRSNGRTKNEHNSMDDEEFEFFHQFSREKVKGVIHVITAELKEKGPDVEFLMIPFRPEQTNDKLLTLLNQLFPLGNGQPVNEKKQLRIVSKADVWTLFQCLKYIWCRLPNSEIIGWKSYLEFKFREEDKKFPRKSFLEIMPQCLASPNHASIVYDFFDLIISISSNSRVNKMSARKISKMCAIWAFSKQIPNSDIQDYDFESAAMKSFAPNNSIQDGLDQWIPASDAMFHLLLAFLRSFVPQDLESAKLPRTLKSLLFNNQYPPRKSTAYTSETILTIPLVTLKTDVFSRKPWQLLERCNDLLDFSDHDAFEAREDYALLKSLFRKKNTVEGISRKMSQESRRLMKAMSTKHSTFQPGWAPRECIENISHLKECIEVKRLDIDDYFIWTWLSSLSFEQTSEKKKIFGRSIILEFEFDGFKKWVVFQECDITLDYNKKGQLKKKTSAQSPTTEKELPPDDFELEDPPLSKSPTLSQTYKKFQAEVPQQSTVRRDSAPDNQGIYHTVISKNALTKNKHNVNLHSFEHKISKWNPLNNLRKKSGSNSSSSSFEEKSKDAPIREEYHTNKNHKSKKEERVLSQFSTLNPDEYQLPVIETGSSNFKIEIPELMYEHDDDDSDKLKNSQKRATDSAIEELNGMVEEMMINEPDDVKISITEAETFESLTKFDQYKPSNITDDDLQSSHSSAVHSLKLSTNTNDSCADSSKYTADRKLAEPRKISEESKVNDDSSSYYSPNINNLPASRMPSQPTYSNSDSKKAFTNESRLNVLQGAVSPSQQVTPKPYKNAPGDCVSPVQQKYYQNDRRNEMSPASAPVPPSAYSPARSPQFSTNSAGFKQNTINVPVGYNDPAHVLANQPHMTYRDQHNYPSHQQKQRPFQNNIVPPELKSRNQRADASPIPQHMVPVKQGVPNLPSNVPLYQQMERMNPNHQHPVNTYKVTQPPYHNNTTNAYGNSRAGNAHMLDGKWSNNPPQMVPKGVRPNQYPQQHVNRYSPQAQPVVPAEYYNGPPPMRAPPMMSHMVPAQEPIRYTAGANRRSFPQGMQQNAYSVPAQPMGAVNSEFYLPEAPQGNKLHGNINKRQERKKLYDNIRSGNFGI
binding (GST-Boi1 (S. cerevisiae)): no binding | binding [1]: binds
